Measurements: the supplement of paper PMC3334620
In all, about 33,000 sequences were measured (“E-score (-0.5 to 0.5)”: median about -0.043, highest 2% from about 0.37 on). Some of the results follow.

molecular target: T1, Upc2 (UniProt Q12151); assay: PBM E-score (8-mer binding enrichment) (E-score (-0.5 to 0.5)); higher = stronger / more preferred TF binding; most listed sequences are background and not binding sites; conditions: protein concentration: 200 nM; construct: GST-full length
T1 sequence: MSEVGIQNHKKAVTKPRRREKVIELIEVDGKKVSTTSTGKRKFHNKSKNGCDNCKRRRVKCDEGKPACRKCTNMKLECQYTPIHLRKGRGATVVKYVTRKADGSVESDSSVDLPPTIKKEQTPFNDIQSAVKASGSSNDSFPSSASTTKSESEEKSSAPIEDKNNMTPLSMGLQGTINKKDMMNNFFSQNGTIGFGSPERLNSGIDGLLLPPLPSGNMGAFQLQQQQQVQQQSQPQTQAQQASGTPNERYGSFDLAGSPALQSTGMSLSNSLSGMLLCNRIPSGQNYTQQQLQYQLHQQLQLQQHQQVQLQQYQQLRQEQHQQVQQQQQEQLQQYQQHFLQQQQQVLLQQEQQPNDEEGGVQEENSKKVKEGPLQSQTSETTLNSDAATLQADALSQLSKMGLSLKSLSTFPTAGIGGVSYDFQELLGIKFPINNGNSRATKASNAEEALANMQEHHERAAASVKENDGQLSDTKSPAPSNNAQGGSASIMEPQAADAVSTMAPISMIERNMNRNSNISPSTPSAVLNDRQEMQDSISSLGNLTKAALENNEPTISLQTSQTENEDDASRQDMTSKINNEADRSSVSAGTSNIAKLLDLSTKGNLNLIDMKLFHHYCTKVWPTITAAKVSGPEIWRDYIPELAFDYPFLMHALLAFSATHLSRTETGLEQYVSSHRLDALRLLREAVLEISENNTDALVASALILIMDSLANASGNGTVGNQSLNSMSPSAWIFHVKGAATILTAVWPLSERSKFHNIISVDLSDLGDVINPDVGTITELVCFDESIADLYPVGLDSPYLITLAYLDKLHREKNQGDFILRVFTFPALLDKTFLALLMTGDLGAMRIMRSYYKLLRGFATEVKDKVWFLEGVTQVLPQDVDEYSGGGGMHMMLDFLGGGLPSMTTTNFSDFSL
Method in brief: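 Detection of bound protein used fluorescent anti-GST, with scans normalised by masliner. The proteins were GST-tagged yeast transcription factors applied at about 100-200 nM to universal all-10-mer Agilent arrays made double-stranded by primer extension. Each ungapped eight-base word, pooled with its reverse complement, was scored with an E-score from the Universal PBM Analysis Suite.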

Row | Sequence | PBM E-score
1 | AATGGTCC | -0.0457
2 | AGCAGTAG | -0.218
3 | AAGCGCAA | 0.0633
4 | AGACCAGA | -0.185
5 | GATCCGCC | -0.0258
6 | ACTGTGGA | -0.31
7 | AGGGAGGA | -0.0889
8 | ATTCCCTG | -0.184
9 | CGCCTGAC | -0.106
10 | GTCGAGCA | -0.207
11 | AGACGACT | 0.0557
12 | GGATATCC | 0.0302
13 | GAATATCC | 0.0376
14 | ATTGCTAA | 0.126
15 | CACATTAG | -0.127
16 | CGGAACTA | 0.0867
17 | CTGTATCA | -0.19
18 | GAAGAATC | -0.126
19 | CACTCTGA | -0.156
20 | CAGTTCGA | -0.152
21 | ATTGTTGG | -0.153
22 | AGTGGGAA | -0.129
23 | CGATACCA | 0.151
24 | ACATTCTA | -0.0366
25 | AACCGTGC | 0.0408

Row | Sequence | PBM E-score
26 | CCAATAGA | -0.265
27 | CTGACTAA | -0.101
28 | CGGTAGCC | 0.0638
29 | GGGTATAA | -0.0582
30 | GACTACCA | -0.0157
31 | CCGGGTAA | 0.0509
32 | GAGGCTGC | -0.209
33 | CGAGCCCC | 0.126
34 | CTGCGAAA | -0.0463
35 | CGATCACC | 0.116
36 | ACGACTCT | 0.319
37 | AGCTGACT | 0.0548
38 | CTGTAGTA | 0.131
39 | AGCACTAG | -0.0309
40 | GTTCATCA | 0.0167
41 | GCAGATAC | 0.105
42 | CTGATATA | 0.0604
43 | CCGGCGTA | 0.248
44 | GATTTTTA | 0.069
45 | CCTTCGAG | -0.116
46 | AACGTGCA | 0.113
47 | GATAGCCC | -0.109
48 | CATCTGGA | -0.166
49 | AGTAGCAA | 0.031
50 | CAAAACCC | 0.0466

Row | Sequence | PBM E-score
51 | CGCGCCAC | -0.17
52 | AGACCCAA | -0.132
53 | CCAGCGTC | -0.209
54 | CACTCATC | -0.0626
55 | AGCAGCGC | -0.0927
56 | GGTGAGTA | -0.124
57 | AAACAAGA | 0.139
58 | AGGACTTC | -0.183
59 | GTGGAAAA | 0.124
60 | GTGCGAAA | 0.0959
61 | AGACCACG | -0.129
62 | ACCGCCGA | -0.0605
63 | CTTACAAA | 0.0368
64 | CATCTTCG | 0.0565
65 | GTCACTGA | -0.13
66 | ATTCTGAG | -0.191
67 | TATTGTCA | -0.0846
68 | ATTTCACA | -0.227
69 | ACATGCCT | -0.134
70 | GGCAACAA | 0.0296
71 | AGAGATTC | -0.0209
72 | AATTCCGA | 0.166
73 | AGATCTGG | -0.105
74 | GACAATGC | -0.0118
75 | GAGATCCA | -0.0815

Row | Sequence | PBM E-score
76 | CGCGATCC | 0.118
77 | ACACGAAA | 0.197
78 | GTCAATTA | 0.0697
79 | ACGGTGCG | 0.268
80 | TAGTTATA | 0.099
81 | AACGGAGC | 0.165
82 | GGCTGCCA | -0.185
83 | CCCCGTAC | 0.368
84 | ACTCCCGG | -0.244
85 | CAGATGTC | 0.0314
86 | CACACGTC | -0.154
87 | AAGTCACT | -0.0329
88 | CTCTACCC | 0.0316
89 | ACGGGGCC | 0.159
90 | CTTTAAGC | 0.00706
91 | CTCGATCC | 0.0922
92 | AATACTAG | 0.00488
93 | CGACCAAC | 0.125
94 | AAGATCTC | 0.0321
95 | GGGAACAC | -0.0556
96 | GATGGAGA | -0.217
97 | CCTCCCTA | -0.00283
98 | CTCAGCTC | -0.114
99 | ATGACAGC | -0.115
100 | GAGGAAGC | 0.00224

Row | Sequence | PBM E-score
101 | GGTGGTAC | 0.0249
102 | TATTTCGA | 0.171
103 | AACCAACG | -0.234
104 | ACCCATGC | -0.259
105 | TCATCAGA | -0.187
106 | AGACACCG | -0.113
107 | AACCGCCA | -0.147
108 | CCAGTCAC | -0.276
109 | CTGCGGCA | -0.102
110 | CGTTACCC | 0.137
111 | CAACCCGG | -0.0562
112 | TGATCAAA | -0.0795
113 | ATAGTAAA | 0.0674
114 | GAAATAGC | -0.0276
115 | CCGTCGGC | 0.026
116 | GACGTACA | 0.305
117 | GTTTCAGA | -0.0953
118 | ACCCAAGA | -0.256
119 | AGCGAGCC | 0.189
120 | AGAGAGTC | -0.0633
121 | CGCGCACA | 0.0678
122 | AAAATGTC | 0.14
123 | AGCTCTGG | -0.214
124 | AAAATTGC | 0.233
125 | CATCGAGA | -0.00533

Row | Sequence | PBM E-score
126 | CAATGGTG | -0.214
127 | ATGGTTCC | -0.0818
128 | GTGGGAGA | -0.0577
129 | CGACCGAG | 0.18
130 | CAACTTGC | -0.0613
131 | CCACCTAA | -0.143
132 | AGACCGCT | -0.126
133 | CTCAGAAG | -0.132
134 | ACGGGTGG | -0.0334
135 | CATAACAA | 0.175
136 | ATGCTAAC | -0.108
137 | ACTCCGAC | -0.123
138 | CAGGCAAA | 0.0826
139 | GCGCTAAC | 0.123
140 | CCTGGACC | 0.0305
141 | ACCCCACG | -0.258
142 | ATCGGAAC | 0.177
143 | GTGGGCAA | -0.156
144 | AAGTCGCC | -0.154
145 | CTAACTAA | -0.0564
146 | AGCCTGAA | -0.107
147 | ATGCTCGC | 0.165
148 | AACTTGGC | -0.0699
149 | ACGTCTAC | 0.091
150 | CCAGAGCG | -0.232

Row | Sequence | PBM E-score
151 | AAATCCCC | -0.147
152 | GACGCATA | 0.114
153 | ACTGACGG | -0.306
154 | ACTCCCTC | -0.175
155 | ACCATTGG | -0.114
156 | ATCACACA | -0.108
157 | CATCGACA | -0.133
158 | AAGTGTGG | -0.25
159 | AGTCCTCG | -0.00049
160 | AGGCCTGC | -0.273
161 | GGAGCGGA | 0.0233
162 | CGGGAACG | 0.404
163 | ACCCCGAG | -0.289
164 | AACGCCTA | 0.0681
165 | ACACACTC | -0.042
166 | CATGAATA | -0.123
167 | GTGAAACA | 0.0101
168 | CCCCCAGG | -0.291
169 | ATGATTTC | 0.0384
170 | ATCCTGGA | -0.0858
171 | GGTCCATA | -0.237
172 | AGCCAGAC | -0.0311
